Reference: PMC4336329 (PLoS ONE, 2015)
Among all 310,000 compounds or so, about 2,200 (0.71%) showed an effect of 50% or more. Effects have a minus sign here. Some of the results follow.

Target: human ether-à-go-go-related gene (hERG) potassium channel (human, UniProt Q12809)
Experiment: primary screen, population patch clamp on CHO cells stably expressing hERG

human ether-à-go-go-related gene (hERG) potassium channel, sequence (Q12809 whole entry, looked up): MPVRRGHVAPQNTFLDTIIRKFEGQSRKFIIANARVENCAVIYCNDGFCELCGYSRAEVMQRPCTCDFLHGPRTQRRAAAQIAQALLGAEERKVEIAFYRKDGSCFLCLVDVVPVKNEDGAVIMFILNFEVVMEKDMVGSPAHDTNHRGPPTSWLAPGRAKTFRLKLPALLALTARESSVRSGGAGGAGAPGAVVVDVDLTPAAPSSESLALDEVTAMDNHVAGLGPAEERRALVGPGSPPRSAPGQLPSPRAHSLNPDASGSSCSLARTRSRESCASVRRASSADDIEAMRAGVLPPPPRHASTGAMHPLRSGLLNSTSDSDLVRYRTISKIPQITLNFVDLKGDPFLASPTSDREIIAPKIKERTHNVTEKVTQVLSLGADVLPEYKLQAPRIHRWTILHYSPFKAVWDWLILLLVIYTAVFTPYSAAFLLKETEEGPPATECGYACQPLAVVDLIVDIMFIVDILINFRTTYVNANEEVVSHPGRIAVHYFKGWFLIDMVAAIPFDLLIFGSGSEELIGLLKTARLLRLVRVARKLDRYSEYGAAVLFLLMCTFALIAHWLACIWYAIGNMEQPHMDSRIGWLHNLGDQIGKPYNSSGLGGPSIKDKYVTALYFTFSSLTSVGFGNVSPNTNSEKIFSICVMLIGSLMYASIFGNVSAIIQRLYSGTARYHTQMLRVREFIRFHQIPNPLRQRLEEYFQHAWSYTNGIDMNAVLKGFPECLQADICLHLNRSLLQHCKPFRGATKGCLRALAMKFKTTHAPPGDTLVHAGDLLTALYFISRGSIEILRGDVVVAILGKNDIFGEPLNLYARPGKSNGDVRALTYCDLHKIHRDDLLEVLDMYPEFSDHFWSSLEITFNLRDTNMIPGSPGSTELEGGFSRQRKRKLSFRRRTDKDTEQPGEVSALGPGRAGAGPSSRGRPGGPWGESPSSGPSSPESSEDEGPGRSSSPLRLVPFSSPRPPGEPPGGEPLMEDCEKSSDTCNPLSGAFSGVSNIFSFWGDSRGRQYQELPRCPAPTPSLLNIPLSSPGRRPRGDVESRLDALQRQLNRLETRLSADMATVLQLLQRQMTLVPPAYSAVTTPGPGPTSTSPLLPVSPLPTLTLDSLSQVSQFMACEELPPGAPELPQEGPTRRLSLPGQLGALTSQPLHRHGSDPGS

Structure (SMILES)	hERG current change (%, negative = inhibition) at 1uM [%]
CC(=O)NCCNC(=O)c1ccc(Cn2c(=O)[nH]c3ccsc3c2=O)cc1	12.1
O=C(CN1CCOCC1)Nc1ccc(Oc2ccc(NC(=O)CN3CCOCC3)cc2)cc1	3.34
O=C(O)c1ccc(C2CCCCC2)cn1	10.4
O=C(COc1cccc(C(F)(F)F)c1)Nc1ccc(S(=O)(=O)N2CCCC2)cc1	6.14
CCN(CC)c1ccc(C2C(C(=O)Nc3ccccn3)=C(C)NC3=C2C(=O)CC(C)(C)C3)cc1 (centres unmarked)	1.54
Cn1cc(Cl)c(C(=O)Nc2nc3ccc([N+](=O)[O-])cc3s2)n1	19.6
CCOC(=O)c1c(NC(=O)c2cccs2)sc(C(=O)N2CCOCC2)c1C	-11.3
CC(=NCCCn1ccnc1)c1c(O)n(C)c(=O)n(C)c1=O	-3.3
COC1=CCC2([N+](=O)[O-])CN(CCO)CC1([N+](=O)[O-])C2 (centres unmarked)	14.4
CCCn1c(=O)c2c(nc3n2CCS3)n(C)c1=O	16.7
CCn1c(=O)c(C(=O)Nc2ccccn2)c(O)c2ccccc21	15
CN(CC(=O)Nc1ccc(Cl)cc1)C(=O)CCc1nc2sc3c(c2c(=O)[nH]1)CCCC3	-11.1
O=C(CSC1CS(=O)(=O)c2cc([N+](=O)[O-])ccc21)NNC(=O)c1ccccc1 (centres unmarked)	0.828
Cc1cc(C)nc(N2CCCC(C(=O)NCc3cccc(C(F)(F)F)c3)C2)n1 (centres unmarked)	15.6
N#Cc1cc2sc3nnc(-c4ccncc4)n3c2cc1C#N	-15.9
Cc1cccc(-c2nnc(SCC#N)n2Cc2ccccc2)c1	-20.4
COc1ccc(OCC(=O)N/N=C/c2ccncc2)cc1	13.2
CC1(C)c2ssc(=S)c2-c2ccccc2N1C(=O)CSC1=NCCS1	14.8
O=C(CN1CC(=O)Nc2ccccc21)Nc1ccc(F)c(F)c1	9.28

Structure (SMILES)	hERG current change (%, negative = inhibition) at 1uM [%]
CC(C)COc1cccc(C(=O)NNC(=O)C2COc3ccccc3O2)c1 (centres unmarked)	10.9
O=C(O)COc1ccc(/C=N/O)cc1Br	6.92
Cc1cccc(-n2c(Cn3nc(C)c([N+](=O)[O-])c3C)n[nH]c2=S)c1	9.63
Cc1ccccc1OCc1nnc(SCC(=O)O)n1-c1ccccc1	13.7
O=C(COc1ccccc1)Nc1nnc(-c2ccccc2Cl)o1	8.45
CN(C)S(=O)(=O)c1ccc(Cl)c(C(=O)Nc2ccccc2[N+](=O)[O-])c1	0.658
CC1CCCC(C)N1/N=C/c1ccc(C(=O)O)cc1 (centres unmarked)	7.54
CCCn1c(SCC(=O)/C(C#N)=C(\C)N)n[nH]c1=O	13.8
CC(C)(C)C(=O)Nc1cc(NC(=O)C(C)(C)C)cc(C(=O)NNC(=O)c2ccncc2)c1	13.9
CCc1cc(=O)oc2c(C)c(OCC(=O)NCCCn3ccnc3)ccc12	5.28
OCC[C@@H]1C[C@H](O)[C@@H](O)[C@]2(Cc3ccccc3CCO2)O1	7.02
Clc1nc(Cl)nc(NCCC2=CCCCC2)n1	7.97
Cc1ccccc1C(=O)Nc1scc(-c2ccc(Br)cc2)c1C(=O)O	7.02
CC(/C=N/NC(=O)c1cccs1)=C\c1ccco1	9.06
COc1cccc(Oc2ccc(C(F)(F)F)cc2NC(=O)CCc2nc3ccccc3c(=O)[nH]2)c1	9.83
CCN(CC1CCCO1)C(=O)CCc1nnc(Cc2ccc3c(c2)OCO3)o1 (centres unmarked)	31.9
CCOC(=O)c1ccc(Nc2nc(=O)c3cccnc3s2)cc1	1.17
CC(C)OP(=O)(c1ccc(N(C)C)cc1)C(O)c1ccc(C(C)C)cc1 (centres unmarked)	17.5
CCOC(=O)c1ccccc1NC(=O)CSc1cccc[n+]1[O-]	5.46

Structure (SMILES)	hERG current change (%, negative = inhibition) at 1uM [%]
COc1ccc(NC(=S)Nc2ccc3snnc3c2)cc1	19.5
NC(=O)C1CCN(Cc2nc(-c3ccccc3)no2)CC1	-0.397
C=CCn1cccc(C(=O)Nc2ccc(OC)cc2)c1=O	7.04
O=C(c1ccccc1)c1cccn1CC(=O)N1CCN(c2ccc(F)cc2)CC1	1.84
CN(C)CCN(C(=O)c1ccc2ccccc2c1)c1nc2ccc(Br)cc2s1.Cl	8.35
CCCN(CC(=O)Nc1cccc(S(N)(=O)=O)c1)CC(=O)Nc1ccc(F)c(F)c1F	6.38
CCOC(=O)c1sc2nc(C)nc(SC(C)C(=O)N(C)c3ccccc3)c2c1C (centres unmarked)	2.83
COc1ccc(NC(=O)Cc2c(F)cccc2Cl)c(OC)c1	15.4
COc1ccc(C(=O)/C=C/Nc2c(C)n(C)n(-c3ccccc3)c2=O)c(OC)c1	5.94
COCCn1c(=O)[nH]c(=O)c2c1nc(-c1ccc(-c3ccc(Cl)cc3[N+](=O)[O-])o1)n2Cc1ccccc1	-9.48
CCCc1c(C)[nH]c2ccccc2c1=O	6.47
Cc1cc(C)cc(NC(=O)CSc2nnnn2-c2cccnc2)c1	13
Cn1c(SCC(=O)Nc2nccs2)nnc1C12CC3CC(CC(C3)C1)C2	1.76
COC(=O)[C@@H](Cc1c[nH]c2ccccc12)NC(=O)CCC(=O)c1ccc(Br)cc1	3.1
COC(=O)[C@@]1(C)CC[C@]2(C)CC[C@@]3(C)C(=CC(=O)C4[C@@]5(C)CC[C@H](O)C(C)(C)[C@@H]5CC[C@]43C)[C@H]2C1 (some centres unmarked)	17.7
O=C(Nc1ccc2c(c1)OCO2)c1ccc2c(c1)OCO2	17
COCCNC(=O)c1cccc2c1-c1ccccc1C2=O	5.49
O=c1[nH]c(Nc2ccccc2)cc2ccccc12	4.01
